Laboratory results reported in patent US20050142634A1, “Novel modulator of non-genomic activity of nuclear receptors (mnar) and uses thereof” (Wyeth, priority 2001, published 2005).

B1: PXXP mutant 2: MNAR with second PXXP motif (aa 64-67) mutated (protein, listed as Homo sapiens)
chain: GGAQNLSALGALVSLSNARLSSIKTRFEGLCLLSLLVGESPTELFQQHCVSWLRSIQQVLQTQDPPATMELAVAVLRDLLRYAAQLPALFRDISMNHLPGLLTSLLGLRPECEQSALEGMKACMTYFPRACGSLKGKLASFFLSRVDALSPQLQQLACECYSRLPSLGAGFSQGLKHTESWEQELHSLLASLHTLLGALYEGAETAPVQNEGPGVEMLLSSEDGDAHVLLQLRQRFSGLARCLGLMLSSEFGAPVSVPVQEILDFICRTLSVSSKNISLHGDGPLRLLLLPSIHLEALDLLSALILACGSRLLRFGILIGRLLPQVLNSWSIGRDSLSPGQERPYSTVRTKVYAILELWVQVCGASAGMLQGGASGEALLTHLLSDISPPADALKLRSPRGSPDGSLQTGKPSAPKKLKLDVGEAMAPPSHRKGDSNANSDVCAAALRGLSRTILMCGPLIKEETHRRLHDLVLPLVMGVQQGEVLGSSPYTSSR
B2: PXXP mutant 1: MNAR with first PXXP motif (aa 55-58) mutated (protein, listed as Homo sapiens)
chain: MAAAVLSGPSAGSAAGVPGGTGGLSAVSSGPRLRLLLLESVSGLLQPRTGSAVAAVHAPNRSAPHLPGLMCLLRLHGSVGGAQNLSALGALVSLSNARLSSIKTRFEGLCLLSLLVGESPTELFQQHCVSWLRSIQQVLQTQDPPATMELAVAVLRDLLRYAAQLPALFRDISMNHLPGLLTSLLGLRPECEQSALEGMKACMTYFPRACGSLKGKLASFFLSRVDALSPQLQQLACECYSRLPSLGAGFSQGLKHTESWEQELHSLLASLHTLLGALYEGAETAPVQNEGPGVEMLLSSEDGDAHVLLQLRQRFSGLARCLGLMLSSEFGAPVSVPVQEILDFICRTLSVSSKNISLHGDGPLRLLLLPSIHLEALDLLSALILACGSRLLRFGILIGRLLPQVLNSWSIGRDSLSPGQERPYSTVRTKVYAILELWVQVCGASAGMLQGGASGEALLTHLLSDISPP

Test system: ER
Assay: MNAR structural-functional analysis, ER-stimulated transcription in HepG2 cells
Format: cell-based
Details: PXXP motif MNAR mutants transfected into HepG2 cells
Protocol: To delineate the regions of MNAR that are responsible for interaction with estrogen receptor and c-Src tyrosine kinase, we performed functional evaluation of MNAR deletion mutants (FIG. 12). A series of C-terminal truncations of MNAR was generated using specially designed oligonucleotides, by amplifying appropriate fragments and cloning them into appropriate expression vectors. These mutants were tested for their abilities to enhance ER-stimulated transcription when transfected into HepG2 cells.
At the C-terminus, MNAR contains a region rich in both proline and glutamic acid. To delineate the regions on MNAR responsible for interaction with estrogen receptors and c-src tyrosine kinase, a functional evaluation of MNAR deletion mutants was performed (FIG. 12). A series of C-terminal truncations of MNAR was generated using specially designed oligonucleotides, by amplifying appropriate fragments and cloning them into appropriate expression vectors. These mutants were tested for their abilities to enhance ER-stimulated transcription when transfected into HepG2 cells.

Molecule	role of mutated PXXP motif in activating ER transcriptional activity
B1	dispensable
B2	necessary and sufficient
